One assay relates to cynomolgus macaque PBMCs. The assay is described as follows: Surface staining of cyno PBMCs by flow cytometry. Conditions: TCRab+, CD4+ and CD8+ subsets. In kind it is cell-based. How it is done:
FIG. 32 depicts Ab1070 binding to human and cynomolgus macaque PBMCs. Binding was measured by flow cytometry using a secondary fluorescent antibody (IgG-PE). T-cell subsets were identified using additional fluorescent antibodies against TCRab, CD4 and CD8 and gated prior to quantifying the median fluorescence intensity (MFI) of the IgG-PE channel. […] The assay was performed with up to 10 μM antibodies (titrated as indicated).
Peripheral blood mononuclear cells (PBMCs) from healthy cynomolgus macaques (Chinese origin) were obtained commercially (iQ Biosciences, Berkeley, CA). Peripheral blood mononuclear cells (PBMCs) from healthy human donors were isolated from leukapheresis packs (leukopaks) from deidentified healthy adult donors (StemCell Technologies, Vancouver, BC). Human PBMCs were isolated using the EasySep Direct Human PBMC Kit (StemCell Technologies) then cryopreserved in DMEM with 10% FBS and 10% DMSO. Frozen PBMC cryovials were thawed on the day of experiments and washed complete growth media (DMEM+10% FBS+1% penicillin/streptomycin). Cells were resuspended in growth media and transferred to a 96-well U-bottom plate at 55,000 cell/well. Human TruStain FcX (Fc Receptor Blocking Solution; Catalog number 422302; BioLegend, San Diego, CA) was added at a 1:20 final dilution of the manufacturer's stock and incubated for 10 minutes at room temperature in a volume of 25 μL. […]
For orientation: In flow cytometry, cells or beads pass a laser one at a time.

The test system of a further assay is AEKO cells. The assay is described as follows: Surface staining of AEKO tumor cells by flow cytometry. The format is cell-based, human. Conditions: […]-1 μM. The method, then: Surface binding was measured on an isogenic panel of EpCAM-knockout and EpCAM-overexpressing cell lines derived from A-431, a human epidermoid carcinoma cell line (FIG. 34). AEKO and AEPO are isogenic control cell lines in which there is zero EpCAM expression (AEKO) or high EpCAM expression (AEKO-E4). AEKO is a commercially available subclone of A-431 in which human EpCAM expression is “knocked out” (disrupted) by a frameshift mutation (catalog number ab261902; Abcam, Cambridge, UK). AEPO was developed using the AEKO cell line as a starting point and restoring expression of human EpCAM by transducing with a lentiviral vector containing human EpCAM downstream of an EF1α promoter. Cells were stained with Ab1070, a conventional TCE containing the M37-H6L2 variant of the M37 clone, at a range of concentrations from 0.015 nM-1 μM.
A single-cell suspension of adherent tumor cell lines was obtained by incubating 5 minutes with TrypLE Express (Gibco, Waltham, MA) and quenching with growth media (DMEM+10% FBS+1% penicillin/streptomycin), centrifuging at 400 rcf×5 minutes, aspirating the supernatant, and resuspending the cell pellet in CSM (AutoMACS Running Buffer, Miltenyi Biotec, Bergisch Gladbach, Germany). […]

B1: Ab1070: conventional TCE containing the M37-H6L2 variant of the M37 clone (antibody)
heavy 1: EVQLVESGGGLVQPGGSLRLSCAASGFTFNTYAMNWVRQAPGKGLEWVARIRSKYNNYATYYADSVKGRFTISRDDSKSILYLQMNSLRAEDTAVYYCVRHGNFGNSYVSWFAYWGQGTLVTVSSGGGGSGGGGSGGGGSDIQVTQSPSSLSASVGDRVTITCRSSTGAVTTSNYANWVQQKPGKAFKGLIGGTNKLAPGVPSRFSGSLSGDDATLTISSLQPEDFATYYCALWYSNLWVFGQGTKLEIKGGGGS[human IgG1 Fc with changes left out]
heavy 2: EVQLVESGGGLVQPGGSLRLSCAASGFTFSNYWMNWVRQAPGKGLEWVAQIRVKSENFATHYADSVKGRFTISRDDSKSTVYLQMNSLRAEDTAVYYCTLYDGFSWGQGTLVTVSSASTKGPSVFPLAPSSKSTSGGTAALGCLVKDYFPEPVTVSWNSGALTSGVHTFPAVLQSSGLYSLSSVVTVPSSSLGTQTYICNVNHKPSNTKVDKKV[human IgG1 Fc with changes left out]
light: DIQMTQSPSSLSASVGDRVTITCSASSSVSSGNFHWYQQKPGKAPKLLIYRTSNLASGVPSRFSGSGSGTDYTLTISSLQPEDFATYYCQQWSGYPYTFGQGTKVEIKRTVAAPSVFIFPPSDEQLKSGTASVVCLLNNFYPREAKVQWKVDNALQSGNSQESVTEQDSKDSTYSLSSTLTLSKADYEKHKVYACEVTHQGLSSPVTKSFNRGEC
modifications: REGION 1..482: note = Ab1070 Knob HC; REGION 1..446: note = Ab1070 Hole HC; REGION 1..215: note = Ab1070 Hole LC
notes: conventional TCE containing the M37-H6L2 variant of the M37 clone
As to B1, the “binding to cyno PBMC T-cell subsets” value in the assay with cynomolgus macaque PBMCs is listed as “dose-dependent”. The “surface binding to EpCAM-knockout AEKO cells” value in the assay with AEKO cells is given as “but not the AEKO cells”.

For the origin of these results see patent US20240190987A1, “Engineered EpCam Binding Antibodies” (TigaTX, priority 2021, published 2024).
